In PubChem BioAssay AID434955 (Southern Research Specialized Biocontainment Screening …, 2010) one finds inhibition data, which are given here for 105 compounds.

Each structure is given as a SMILES string. The list shows a part of the results. These are further read-outs of the screen, such as a control signal, another cell line or another target. No call is given for them. Compounds called inactive in the main read-out are mostly missing here.

This test can be described thus: beta-lactam sensitization of Mtb H37Rv, H37Rv (AID 434955).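 Note: growth measured after seven days incubation then overnight dye step; 0% = bacteria only wells and 100% = bacteria with antibiotic.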 Conditions: M. tuberculosis H37Rv growth with meropenem, percent inhibition; measured here: primary screen without meropenem; at 25 µM.
For orientation: inhibition means the drop in the measured response relative to a control, in per cent. Take `CN(CC1COc2ccccc2O1)C(=O)c1cc(COc2c(F)cccc2F)on1` (stereo not given): the inhibition amounted to 7.08%. To `CC1CC(C)CN(CCCNC(=O)CN2C(=O)c3cccnc3Oc3ccc(Cl)cc32)C1` (stereo not given) belongs 7.54%; to `O=C(Nc1ccc(F)c(F)c1)NC1CCCCC1`, -9.69%; to `CCOC(=O)c1ccccc1NC(=O)COC(=O)CN1C(=O)NC2(CCCC2)C1=O`, 7.78%.

For `COC(=O)c1c(NC(=O)c2ccc(N(C)S(=O)(=O)c3ccc(C)cc3)cc2)sc2c1CCCC2`, the inhibition came to 14.9%. Regarding `CNC(=O)c1c(NC(=O)c2ccco2)sc2c1CCCC2`, the inhibition is -3.2%.

Take `N#C/C(=C/c1ccc(N2CCCCC2)o1)C(=O)Nc1ccc(Cl)cc1`: the inhibition worked out at 2.7%. To `COc1cccc(NC(=O)C2CC2)c1` belongs 21.5%. To `C[C@]12CC[C@H]3[C@@H](CCC4=CC(=O)CC[C@@]43O)[C@@H]1CCC2=O` belongs -4.5%; to `C=CCSc1nsc(N)n1`, 1.36%; to `Cc1cc(N2CCC(C)CC2)c(F)cc1[N+](=O)[O-]`, 3.72%.

Regarding `Cc1cccc(NC(=O)c2nc[nH]c2C(=O)NC2CCN(C(=O)OC(C)(C)C)CC2)c1`, the inhibition is 78.2%.

On to `CC(C)Cn1c(-c2csc3c2CCCC3)n[nH]c1=S`, for which the inhibition was -7.19%. To `CC(C)n1cc(CN2CCC(n3nccc3NC(=O)Cc3ccccc3)CC2)cn1` belongs -1.99%; to `O=C(c1cccs1)N1CCN(S(=O)(=O)c2ccccc2)CC1`, -6.9%. To `COCCn1c(=O)[nH]c2cc(C(=O)NCC3CCCO3)ccc2c1=O` (stereo not given) belongs -6.75%; to `CCCCN(C(=O)C1CC(=O)N(Cc2ccc(C)cc2)C1)c1c(N)n(CC(C)C)c(=O)[nH]c1=O` (stereo not given), -14.7%; to `CCCCCn1c(=O)c(C(=O)Nc2cnccn2)c(O)c2ccccc21`, -5.68%.

For `Cc1ccnc2c(N3C(=O)C4C5C=CC(C5)C4(C)C3=O)cccc12` (stereo not given), the inhibition was 0.31%. To `CSc1nc2cc3c(cc2n1C(=O)c1ccc(C)cc1)OCCO3` belongs 54.6%; to `CCc1ccc(NC(=O)Cn2ccn(-c3cccc(Cl)c3)c(=O)c2=O)cc1`, -7.5%.

For the compound `CCOP(=O)(C(NC(=O)c1ccccc1Cl)=C(Cl)Cl)c1ccccc1` (stereo not given), the inhibition is 2.23%. The same measure for `O=C1CSc2ccc(C(=O)NCCC3=CCCCC3)cc2N1`: -4.88%; for `COc1ccccc1CN1CC(C(=O)N2CCCCCCC2)CCC1=O` (stereo not given): -7.25%; for `CCCCNC(=O)CN(c1ccc(Cl)c(Cl)c1)S(C)(=O)=O`: 0.94%. The same measure for `Cc1ccc(Nc2cc(C)nc3ncnn23)c(Cl)c1`: -6.1%. To `COc1ccc(S(=O)(=O)N(C)CC(=O)NC2CC2)cc1OC` belongs 3.47%; to `Cc1cc(Br)ccc1NC(=O)CN1C(=O)C2CC=CCC2C1=O` (stereo not given), 59.5%; to `COC(=O)c1ccc(C(=O)OC)c(NC(=O)CSc2cccc[n+]2[O-])c1`, 100%. On to `Cc1nnnn1/C(=C\c1ccccc1)C(=O)OCC(=O)NC1CCCCC1`, for which the inhibition came to 39.5%. The same measure for `COc1cc(OC)c2ccc(=O)oc2c1C(CC(=O)N1CCN(c2ccccc2)CC1)c1ccc2c(c1)OCO2` (stereo not given): 38.5%; for `O=C(NCCc1ccccc1Cl)C1CCC(=O)N(Cc2ccc(Cl)cc2)C1` (stereo not given): 6.77%; for `CC(=O)c1ccc(S(=O)(=O)Nc2cccc(S(=O)(=O)NC3=NCCC3)c2)cc1`: 0.25%. Regarding `COC(=O)C1=C(C)NC2=C(C(=O)CC(C)(C)C2)C1c1cccc(C)n1` (stereo not given), the inhibition was -6.4%.

Regarding `Cc1ccc(C(=O)N/C(=C\c2cccc([N+](=O)[O-])c2)C(=O)NC(Cc2ccccc2)C(=O)O)cc1` (stereo not given), the inhibition was found to be 3.26%.

For the compound `CCOC(=O)c1[nH]c(C)c(/C(O)=C2\C(=O)C(=O)N(CCN(C)C)C2c2cccc(OC)c2OC)c1C` (stereo not given), the inhibition was -0.95%. The same measure for `CC(=O)Nc1ccc(S(=O)(=O)Oc2ccc(Br)cc2C(=S)N2CCOCC2)cc1`: -1.11%; for `Cn1c(=O)cc(OCC(=O)N2CCC3(CC2)OCCO3)c2ccccc21`: -3.05%; for `O=C(Nc1ccncc1Cl)c1ccncc1`: -12.7%.

For `CN1CCN(CCCC(=O)c2ccc(F)cc2)CC1`, the inhibition was -6.04%. The same measure for `COCC1CCN(C(=O)c2ccc3oc(Cc4ccccc4)nc3c2)C1` (stereo not given): 8.29%; for `Cc1c(C=O)c(C=O)c(C)n1Cc1ccccc1`: 41.3%.

As to `Cn1nnnc1Sc1ncnc2scc(-c3ccc[nH]3)c12`, the inhibition was determined as 88.8%.

For the compound `O=C(Cc1cccc2ccccc12)N/N=C/c1ccc(OC(=O)/C=C/c2ccco2)cc1`, the inhibition came to 9.56%. With `COCCCNC(=O)Cn1cc2c(n1)CCC(C)C2` (stereo not given), the inhibition was -3.69%.

`COc1cc(C(=O)NC2CCCCC2)ccc1OCc1ccc(Cl)cc1Cl`: the inhibition came to 1.14%. Consider `CCCC(O)(c1ccc(Cl)cc1)C(CN1CCOCC1)c1ccc(Cl)cc1` (stereo not given), for which the inhibition is 34.7%. To `N#Cc1c(-c2ccc(F)cc2)cc(-c2cccnc2)nc1N` belongs 7.5%; to `Cc1ccc2c(c1)N(CC(=O)N1CCCC1)C(=O)c1cccnc1O2`, 2.62%.

For the compound `O=C(CSc1nnc(NC(=O)C2CC(=O)N(c3ccc(F)cc3)C2)s1)NCc1ccco1` (stereo not given), the inhibition was determined as 2.41%. In the case of `COc1ccc(C(=O)NCCNC(C)=O)cc1S(=O)(=O)NCc1ccc(Cl)cc1`, the inhibition was -18.4%. To `CCOc1ccc(S(=O)(=O)N2CCCC(C(=O)N3CCOCC3)C2)cc1` (stereo not given) belongs 0.73%. To `COc1ccc(C(CNC(=O)c2cc(=O)[nH]c3ccccc23)N2CCCC2)cc1` (stereo not given) belongs 0.24%; to `COc1ccc(N(CC(=O)N/N=C/c2cccc(OC)c2OC)S(=O)(=O)c2ccccc2)cc1`, -5.39%; to `CCc1c(C)nc2ncnn2c1N1CCC(C(=O)NCc2ccc3c(c2)OCO3)CC1`, 4.56%. The same measure for `COc1ccccc1NC(=O)c1cnc(Nc2ccccc2OC)c2ccccc12`: 8.27%; for `COc1ccc(-n2c(O)c(C=NCCN3CCN(C(C)=O)CC3)c(=O)[nH]c2=S)cc1`: -0.26%; for `CC(C)CNc1c2c(nc3ccccc13)CCC2`: 3.61%. For `CS(=O)(=O)c1ccc2c(c1)SC1=NC(=O)/C(=C/c3ccco3)C(=N)N12`, the inhibition was -1.32%. As for `Cc1ccccc1C(=O)Nc1nnc(SCC(=O)NCc2ccco2)s1`, the inhibition was -1.21%. To `c1ccc2nc3c(nc2c1)c1ccccc1n3CCN1CCOCC1` belongs 1.7%.

With `Cc1c(NS(=O)(=O)c2ccc(N3CCCCC3)c([N+](=O)[O-])c2)c(=O)n(-c2ccccc2)n1C`, the inhibition is -11.9%.

For `Cc1cccc(C(=O)NCC(=O)N2CCOCC2)c1`, the inhibition came out at 5.14%. To `O=C1c2ccccc2C(Nc2ccc3c(c2)OCCO3)N1Cc1ccco1` (stereo not given) belongs -2.9%; to `CCCn1c2ccccc2c2nnc(SCC(=O)OCC)nc21`, 47.6%. The same measure for `O=C(O)c1ccc(N2C(=O)CC(Cc3ccccc3)C2=O)cc1` (stereo not given): -0.74%; for `CCOC(=O)c1c(C)n(C)c2ccc(OC)c(NC(=O)c3cccs3)c12`: -13%; for `CCOC(=O)CSc1nnc(-c2ccc(S(=O)(=O)NCc3cccs3)cc2)o1`: 99.6%. To `CCOc1cccc(CN2CCC(n3nccc3NC(=O)C3CC3)CC2)c1O` belongs 3.34%.

As for `CCn1c(=S)sc2c(=O)n(CC(=O)Nc3cccc(Br)c3)c(C)nc21`, the inhibition came to 5.68%. To `Cc1cc(C(=O)N2CCCC(N3CCN(c4cccc(Cl)c4)CC3)C2)no1` (stereo not given) belongs 4.85%.

Turning to `Cc1ccc(C)c(NC(=O)COC(=O)c2ccc(S(=O)(=O)N3CCCCC3)cc2)c1`, the inhibition is 12.3%. To `Cc1ccc(S(=O)(=O)NNC(=O)c2ccc(O)cc2)cc1` belongs 9.92%. The same measure for `C/C(=N\NC(=O)c1csc2ccccc12)c1ccc(O)cc1`: 10%. To `Cc1cccc(Cl)c1NC(=S)NN` belongs 25.9%. As for `COC(=O)c1cc(OC)c(OC)cc1NC(=O)c1ccc(OC)c(OC)c1`, the inhibition was found to be 51.9%. To `O=C(CN(Cc1ccc(Cl)cc1)S(=O)(=O)c1ccccc1)NCC1CCCO1` (stereo not given) belongs -6.08%. The same measure for `CC1(C)Cc2c(cnn2-c2ccccc2)C(NC(=O)CCCN2CCCC2=O)C1` (stereo not given): 1.71%; for `COc1cc2c(cc1OC)CN(C(=O)Cc1ccccc1)CC2`: 7.16%; for `CC(C)(C)c1nnc(NC(=O)C2c3ccccc3Oc3ccccc32)s1`: 37.4%. Take `CCN(CC)C(=O)c1ccccc1NC(=O)c1cccc(S(=O)(=O)N(CC)CC)c1`: the inhibition was -0.02%. To `Cc1cccc(C)c1OCc1cc(C(=O)N(C)Cc2nc3ccccc3[nH]2)no1` belongs 10.9%. Take `Cc1ccc(C)c(NC(=O)c2ccc(S(=O)(=O)N(C)CC3CCCO3)cc2)c1` (stereo not given): the inhibition was found to be 5.09%. To `O=C(NC(=S)N1CCN(c2ccccc2)CC1)c1ccccc1` belongs 67.5%; to `Cc1occc1C(=O)NC1CCCN(Cc2ccc(CC(C)C)cc2)C1` (stereo not given), 17.6%; to `Fc1ccc(-c2csc3ncnc(N4CCc5ccccc5C4)c23)cc1`, 0.96%. The same measure for `CCOc1cc(CNCCN(C)C)c(Cl)cc1OCC(=O)NCCc1ccccc1`: 1.48%. For `CCCn1cc(S(=O)(=O)c2ccc(C)cc2)c(=O)c2cc(OCC)ccc21`, the inhibition is 1.77%. As for `O=C(CCN1C(=O)C2C3CCC(C3)C2C1=O)OCC(=O)c1ccc(Br)cc1` (stereo not given), the inhibition came to 12%. The same measure for `CNC(=O)c1c(NC(=O)C2=COCCO2)sc2c1CCCC2`: -0.06%; for `CN1CCc2c(sc(NC(=O)c3ccco3)c2C(N)=O)C1`: 4.51%; for `C=CCSc1nnc(N2C(=O)C(O)=C(C(=O)c3ccco3)C2c2ccc(F)cc2)s1` (stereo not given): 4.25%.

On to `CCCc1nc2c(ccc3ccccc32)cc1CC`, for which the inhibition was -3.6%.

For the compound `COc1ccc(-c2csc(NC(C)c3nc4cc(Cl)c(Cl)cc4n3CCCO)n2)cc1` (stereo not given), the inhibition turned out to be 35.7%. To `COC(=O)C(NC(=O)c1ccccc1Cl)(Nc1ncc(S(=O)(=O)c2ccc([N+](=O)[O-])cc2)s1)C(F)(F)F` (stereo not given) belongs 77.9%. To `Cc1ccccc1-c1nc(S(=O)(=O)c2ccc(Cl)cc2)c(NCCN2CCOCC2)o1` belongs -6.48%; to `COCCN1CCN(C(=O)C2CCC(=O)N(CCc3ccc(Cl)cc3)C2)CC1` (stereo not given), -4%; to `CCCCCn1c(Br)nc2c1c(=O)n(CC(N)=O)c(=O)n2C`, 5.21%.

Consider `CC(Cc1cccnc1)NC(=O)c1cc(COc2ccc(F)cc2F)on1` (stereo not given), for which the inhibition stood at 12.6%.

With `CC(NS(=O)(=O)c1ccc2c(c1)C(C)(C)C(=O)N2C)c1ccccc1` (stereo not given), the inhibition was -6.79%. To `CCCN1CCc2c(sc(NC(=O)CCS(=O)(=O)c3ccccc3)c2C(N)=O)C1` belongs 0.57%; to `COc1ccc(NC(=O)C/C(C)=N/NC(=O)c2cnccn2)cc1`, 5.92%.

Turning to `COC(=O)c1ccc(N2CCOCC2)c(NC(=O)c2ccc(Br)o2)c1`, the inhibition stood at 0.71%.

For the compound `O=[N+]([O-])c1ccc(Sc2cccc3cccnc23)c([N+](=O)[O-])c1`, the inhibition came to 65.5%. The same measure for `NC(=O)c1cnn2c1NC(c1ccc(F)cc1)CC2C(F)(F)F` (stereo not given): -13.1%.
